# Test results published in the supplement of paper PMC3334620.
# The full ranking holds about 33,000 sequences; the median of “E-score (-0.5 to 0.5)” is about -0.043, and the highest 2% start at about 0.37. The list shows a part of the results.
# Biological target: T1, Upc2 (UniProt Q12151)
# T1 sequence: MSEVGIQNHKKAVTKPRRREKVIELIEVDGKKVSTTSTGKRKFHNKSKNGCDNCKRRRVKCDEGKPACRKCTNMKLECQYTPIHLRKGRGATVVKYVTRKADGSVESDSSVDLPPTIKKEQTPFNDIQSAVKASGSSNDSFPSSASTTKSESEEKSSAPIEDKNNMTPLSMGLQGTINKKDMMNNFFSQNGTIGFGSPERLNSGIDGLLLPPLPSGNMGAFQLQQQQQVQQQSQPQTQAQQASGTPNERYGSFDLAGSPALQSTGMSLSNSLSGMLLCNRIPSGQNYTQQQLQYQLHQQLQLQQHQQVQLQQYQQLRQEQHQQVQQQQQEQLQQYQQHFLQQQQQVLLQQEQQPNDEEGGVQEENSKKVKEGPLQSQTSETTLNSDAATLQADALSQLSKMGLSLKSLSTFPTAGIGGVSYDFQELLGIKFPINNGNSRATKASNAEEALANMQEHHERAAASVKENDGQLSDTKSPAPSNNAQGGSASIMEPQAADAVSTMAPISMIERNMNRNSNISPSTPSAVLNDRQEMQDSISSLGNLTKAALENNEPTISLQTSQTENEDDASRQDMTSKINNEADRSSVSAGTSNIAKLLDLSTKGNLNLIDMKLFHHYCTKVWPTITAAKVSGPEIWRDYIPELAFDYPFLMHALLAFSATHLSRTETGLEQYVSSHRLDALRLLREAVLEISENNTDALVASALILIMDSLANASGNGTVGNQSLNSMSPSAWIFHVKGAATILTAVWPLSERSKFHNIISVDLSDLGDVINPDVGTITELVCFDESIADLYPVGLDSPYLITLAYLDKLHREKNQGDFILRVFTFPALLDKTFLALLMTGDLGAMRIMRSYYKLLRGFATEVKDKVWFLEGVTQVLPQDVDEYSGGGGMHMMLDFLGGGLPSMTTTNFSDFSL
# Experiment: PBM E-score (8-mer binding enrichment) (E-score (-0.5 to 0.5)); higher = stronger / more preferred TF binding; most listed sequences are background and not binding sites
# Details: protein concentration: 200 nM; construct: GST-full length
# Procedure, shortened: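 Yeast transcription factors, full-length or as DNA-binding domains, were expressed with a GST tag using PURExpress in vitro transcription/translation. At about 100-200 nM they were applied to universal all-10-mer Agilent arrays, double-stranded by primer extension on fresh or once-stripped slides. Fluorescent anti-GST detected bound protein, and masliner normalised the scans. E-scores for ungapped eight-base words, pooled with reverse complements, came from the Universal PBM Analysis Suite.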
row,Sequence,PBM E-score
1,AAGGAGTA,-0.26
2,CGACGTGC,0.179
3,ATCGTCTA,0.143
4,CGAACTTA,0.174
5,AATTGTCG,0.02
6,TAAGCGCA,0.0966
7,ACCAATGG,-0.303
8,CACCCACC,-0.208
9,CCCCAGAA,-0.186
10,AAGGTATA,0.149
11,ATCCGCGA,-0.079
12,GAGTGCCC,-0.0874
13,GGTTCACA,-0.177
14,TAAGTTGA,-0.111
15,CCCAGAGC,-0.306
16,GGCATACA,-0.00169
17,ACAGTCAC,-0.148
18,ACTTCCCT,-0.239
19,CAGGCGTA,0.131
20,CGACGCAC,0.182
21,GATGGACC,-0.0321
22,AGCCTATG,-0.26

row,Sequence,PBM E-score
1,GTTCTCAA,0.0703
2,ACTACAAG,-0.044
3,ACTTCGCG,0.166
4,CGTAGCAG,0.198
5,GGACTTCA,-0.256
6,ACTTGGCA,-0.0444
7,CAGCTCCG,0.0379
8,CTCTAACC,-0.18
9,AACTATAA,0.0921
10,TAAGCCTA,0.0514
11,CTTCTAAC,-0.197
12,GACATGAA,-0.117
13,CGCTTTCA,-0.0764
14,CGCGCACG,-0.00142
15,CTACAAGA,-0.194
16,CGTCTGTC,-0.111
17,AATACTCG,0.101
18,CGTTTTCC,0.165
19,AAGCGTGC,-0.0801
20,TCTTTGCA,-0.0667
21,CATGTAGC,-0.108
22,CCGCAGAA,-0.025

row,Sequence,PBM E-score
1,ATGACCCG,-0.0623
2,GCATACGA,0.47
3,ATTTATGG,0.0293
4,GGAACAGA,-0.303
5,CTGCCTAA,-0.123
6,CTCAGGTC,-0.0484
7,GCCACCAC,-0.276
8,CTCAACCC,-0.0986
9,CACTTGCC,-0.222
10,CATGACCC,-0.175
11,ATGCCTAG,-0.264
12,CAACCTCC,-0.217
13,TAACGCCA,0.127
14,TGATTACA,-0.0104
15,AGCTACTG,-0.0902
16,GTCAACGA,0.248
17,CGACCTGC,-0.0528
18,CAGTGTGA,-0.187
19,CGATGTGC,0.111
20,AGTATCCA,-0.0811
21,ATCAAGAA,-0.0255
22,AAGATGAA,-0.0898

row,Sequence,PBM E-score
1,ACCCCTAT,-0.0296
2,ACCATTCT,-0.122
3,CACCCTGA,-0.259
4,GACAGGAA,0.0304
5,GATGGCCA,-0.161
6,ACTCCCAC,-0.0741
7,GTGCGTTA,0.0729
8,TGATACAA,-0.162
9,AACGAGCT,0.438
10,AAACCTTC,-0.136
11,AGTGGAAG,-0.288
12,ATGAACTG,-0.00237
13,CCCGACTC,-0.0417
14,GATTGTTA,0.036
15,CCAGTAGC,0.028
16,CCTCAGCG,0.0381
17,TAACTACA,0.00324
18,CAAAACAC,-0.084
19,CACCCTCC,-0.083
20,CGATCCGA,0.189
21,CTGCGCAA,-0.0175
22,CTGTATGA,-0.0678

row,Sequence,PBM E-score
1,ACGTAGAG,0.101
2,AAACTCCA,-0.114
3,ATACAATC,0.133
4,AGTGCAGA,-0.00395
5,AACAAGTT,-0.141
6,ACTCCTCA,-0.157
7,AGGTCGTA,0.451
8,AGTACAGC,-0.156
9,AAAACCGC,-0.0094
10,AGATTTGC,-0.069
11,ATCCATTA,-0.101
12,CGCATCCG,0.109
13,AACGCATG,0.172
14,ATACATCG,-0.0482
15,ACGACTAG,0.234
16,ACGGGGCG,0.238
17,CATGGCGC,-0.161
18,CACGACGC,0.0689
19,CGCCCGCC,-0.036
20,CATTGGTA,-0.184
21,ATGTCCTC,-0.0153
22,GCTCTTGA,-0.305
